Assay results taken from a compilation of properties of binary mixtures (doi:10.1021/acs.jpcb.8b02500).
The densities may have been worked out from excess volumes.

Test: xn = mol fraction of the nth substance listed
Settings: 100 kPa

CCCCCC[N+]1(C)CCCC1.O=S(=O)([N-]S(=O)(=O)C(F)(F)F)C(F)(F)F + OCCc1ccccc1
mass density [kg/m3]
Settings	298.15 K	308.15 K	318.15 K	328.15 K	338.15 K	348.15 K
x1 = 0.2	1153.1	1145	–	–	1120.9	1112.5
x1 = 0.4	1229	1220.8	1212.6	1204.3	–	–
x1 = 0.6001	1277.4	1269	–	1252.3	1244	1235.7
x1 = 0.8	–	1302.5	1294	1285.6	1277.3	1268.9
x1 = 1	1335.7	1327	1318.5	–	1301.5	1293.3

CCCCCCCCCCCC[n+]1ccn(C)c1.O=S(=O)([N-]S(=O)(=O)C(F)(F)F)C(F)(F)F + OCCc1ccccc1
mass density [kg/m3]
Settings	298.15 K	308.15 K	318.15 K	328.15 K	338.15 K	348.15 K
x1 = 0.2	–	1118.3	1110.2	1102.2	–	1085.8
x1 = 0.4	1177.5	1169.2	1160.9	1152.6	–	1136.1
x1 = 0.6	1207	1198.5	1190.2	1181.8	–	1165.1
x1 = 0.8	1227.7	1219.1	1210.7	–	–	1185.6
x1 = 1	1242.3	1233.7	1225.2	–	1208.3	1199.8

OCCc1ccccc1 + CCCCCC[N+]1(C)CCCC1.O=S(=O)([N-]S(=O)(=O)C(F)(F)F)C(F)(F)F
x2 = 0
Settings	mass density [kg/m3]
298.15 K	1018
308.15 K	1010.1
318.15 K	1003
328.15 K	995.2
348.15 K	979.2
